From PubChem BioAssay AID1508624 (National Center for Advancing Translational Sciences (NCATS), 2021)
About 120 (0.25%) of roughly 48,000 compounds were called active. About 4% were inconclusive and are not listed. Calls follow the shape of the dose curve; as a rule, active = well fitted activation curve with a large enough effect; inconclusive = small, poorly fitted or top-dose-only effect, or another doubt; inactive = no such curve, though single readings can be large or run the other way. The list shows a part of the results.

Assay: Primary qHTS for Identification of Small Molecule Activators of Huntingtin-Antisense Promoter Activity; also: nearly all actives have a fitted effect of over 55% in size
Settings: HEK293 HTT-AS promoter firefly luciferase reporter, 24 h; series mostly up to 57.5 µM; activity change, positive = activation: at the top concentration
Method in brief: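 Firefly luciferase readout (Dual-Glo, 10 min RT) after 24 h, 37 °C compound exposure (final up to 57.5 uM) of HEK293 reporter cells cultured 24 h beforehand; PTC124 at 50 uM final as control inhibitor; activity scaled vehicle 0%, zero RLU -100%.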

Activity change, positive = activation, inactive:
CCOCCCNC(=O)c1cc2c(=O)[nH]c3ccccc3c2n1C 0.166%
Cc1ccc(C)c(CN2C(=O)CSc3ccc(C(=O)NCCc4ccc(Cl)cc4)cc32)c1 -12.9%
Clc1ccc(CNc2cc(-c3ccccc3)nc3nncn23)cc1 -34.9%
O=C(Nc1cccc(C(F)(F)F)c1)Nc1nnc(N2CCCCC2)s1 22.3%
N#Cc1c(Nc2cccc(F)c2)sc(C(=O)c2ccc(Cl)cc2)c1N 3.99%
CCN(c1ccccc1)S(=O)(=O)c1ccc2[nH]cc(C(=O)NCc3ccc(C)cc3)c(=O)c2c1 0.741%
Cc1cc(C)nc(NS(=O)(=O)c2ccc(N)cc2)n1 -3.85%
Cc1c(-c2ccc(Cl)cc2)c(=O)oc2c(CN3CCCC3)c(O)ccc12 -19.6%
COc1ccc(N2CC(NC(=O)c3ccc(OC(C)C)cc3)CC2=O)cc1 (stereo not drawn) -2.63%
COc1ccccc1CNC(=O)CN1C(=O)CCn2nc(-c3ccccc3)cc21 -20.9%
COc1ccc(-c2nc3sc(CCNS(=O)(=O)c4ccc(F)c(C)c4)c(C)n3n2)cc1 -18%
Cc1ccc(OCC(=O)Nc2ccc3nc(Nc4cccc(Cl)c4)cc(C)c3c2)cc1 -4.09%
CCOc1ccc(S(=O)(=O)NCCc2sc3nc(-c4ccc(C)cc4)nn3c2C)cc1 -27.1%
Cc1cc(C)cc(-n2ccn(Cc3ccc(F)cc3)c(=O)c2=O)c1 -12.9%
COc1cc([C@@H]2c3cc4c(cc3[C@@H](O[C@@H]3O[C@@H]5CO[C@@H](C)O[C@@H]5[C@H](O)[C@@H]3O)[C@H]3COC(=O)[C@H]23)OCO4)cc(OC)c1O -38.3%
CCCn1c(CCC(=O)Nc2ccccc2OC)nc2cccnc21 5.07%
COc1ccc2oc(-c3cccc(NC(=O)c4sc5c([N+](=O)[O-])cccc5c4Cl)c3)nc2c1 -14.8%
O=c1c2sc3ccccc3c2n(Cc2cccc(C(F)(F)F)c2)c(=O)n1Cc1ccc(F)cc1 -10.8%
COc1ccc(NC(=O)CC2C(=O)N(c3cccc(OC)c3)C(=O)N2Cc2ccc3c(c2)OCO3)cc1 (stereo not drawn) 0%
COc1cccc2c1C(=O)c1c(O)c3c(c(O)c1C2=O)C[C@@](O)(C(=O)CO)C[C@@H]3O[C@H]1C[C@H](N)[C@H](O[C@@H]2CCCCO2)[C@H](C)O1 -33.8%
CCCCOC(=O)c1ccc(Nc2nnc(-n3nc(C)cc3C)c3ccccc23)cc1 -22.8%
Cc1nnc2c3ccccc3nc(Nc3cccc(O)c3)n12 -5.73%
CCOC(=O)c1ccc(NC(=O)c2nc(SCc3ccccc3F)ncc2Cl)cc1 -31.3%
COc1ccc(-c2noc(CSc3nc(N)cc(=O)[nH]3)n2)cc1OC -35.1%
O=C(NC1CC(=O)N(c2ccc(Cl)cc2)C1)c1ccc(S(=O)(=O)N2CCOCC2)cc1 (stereo not drawn) -28.2%
COc1cc(C2C(C(=O)Nc3ccccc3)=C(C)Nc3nnnn32)cc(OC)c1OC (stereo not drawn) -14.9%
COc1ccc(-c2noc(CN(C(=O)c3cc(OC)c(OC)cc3OC)C(C)C)n2)cc1 -22.1%
CCOc1ccc2nc(N3CCCC(C(=O)NCc4ccccc4OC)C3)sc2c1 (stereo not drawn) 20.7%
Cc1ccc(Cl)cc1NC(=O)C1CCN(c2nc3ccccc3n3cccc23)CC1 -14%
CCCn1c2ccccc2c2cnn(CC(=O)NCCc3ccc(C)cc3)c(=O)c21 -16.4%
CCOc1ccc(S(=O)(=O)Nc2cc(Cl)ccc2OC)c2cccnc12 -27.6%
Cc1nc(C(=O)NCC(=O)O)c(O)c2ccc(Oc3ccccc3)cc12 3.05%
Cc1ccc(/C=C/c2onc(C)c2S(=O)(=O)N2CCC(C(=O)Nc3cc(F)ccc3F)CC2)cc1 -34.6%
CC(=O)Nc1ccn(C2COC(COC(=O)c3ccccc3)O2)c(=O)n1 (stereo not drawn) -17.8%
COCCn1c(=O)[nH]c2cc(C(=O)Nc3cccc(C(C)=O)c3)ccc2c1=O -15.1%
COc1ccc(Nc2oc(/C=C/c3ccc(OC)c(OC)c3)nc2C#N)cc1 -10.3%
Cc1ccc(CN2CCCn3nc(C(=O)NCC(C)c4ccccc4)cc3C2=O)cc1 (stereo not drawn) -17.3%
CCc1nn(CC(=O)NCCCOC)c(=O)c2cc3ccccc3n12 -4.3%
Cc1cc(C)c2oc(C(=O)Nc3ccc(S(=O)(=O)Nc4nccc(C)n4)cc3)cc(=O)c2c1 -3.41%
Cc1ccc(NC(=O)c2c(NC(=O)c3ccccc3)sc3c2CCC3)cc1 10.3%
CC1CCc2c(sc(NC(=O)c3cc(-c4ccc(F)cc4)on3)c2C(N)=O)C1 (stereo not drawn) 1.2%
Cc1ccc2sc(N(Cc3cccnc3)C(=O)C3COc4ccccc4O3)nc2c1C (stereo not drawn) -3.83%
CCc1ccc(CN(C(=O)c2cc(=O)c3ccc(C)cc3o2)C2CCS(=O)(=O)C2)cc1 (stereo not drawn) -14.7%
CC(C)Cn1c(=O)c2sccc2n2c(CCCC(=O)NC3CCCCC3)nnc12 7.04%
CCN(CC)CCNC(=O)c1ccc(-n2c(-c3ccccc3)cc3c2CCCC3)cc1 18.1%
COc1cccc(CNC(=O)CCCn2nc(C)c3c(C)n(-c4ccc(C)cc4)nc3c2=O)c1OC -4.27%
Cc1cc(C)cc(NC(=O)C2CCN(S(=O)(=O)c3cccc(-c4noc(C)n4)c3)CC2)c1 -36.4%
COc1ccc(S(=O)(=O)c2nnn(-c3ccc(C)c(Cl)c3)c2C)cc1 -38.9%
CC1=Nc2cc(C(=O)NC(C)C)ccc2Sc2ccc(C)cc21 -33.3%
Fc1ccc(Br)cc1C1C=C(c2ccc(Br)cc2)Nc2nnnn21 (stereo not drawn) -25.2%
Cc1ccc(CNC(=O)CCCN2C(=O)COc3ccc(C)cc32)cc1 13.6%
Cc1cccc(NC(=O)C(=O)NCCc2csc(-c3ccc(C(F)(F)F)cc3)n2)c1C -3.94%
O=C(CC1N=C2c3ccccc3N=C(SCC(=O)Nc3ccccc3F)N2C1=O)NCc1cccs1 (stereo not drawn) -3.66%
CC(C)Cn1cc(NC(=O)NCc2ccccc2Cl)c2ccccc2c1=O -5.65%
CC(NC(=O)C1CCN(S(=O)(=O)c2ccc3nc4c(c(C(=O)O)c3c2)CCCC4)CC1)c1ccccc1 (stereo not drawn) 2.65%
Cc1ccc(NC(=O)CCS(=O)(=O)c2cc(Br)cc3c2N(C(=O)C2CC2)CC3)cc1 -9.43%
O=C(CSc1oc(-c2ccccc2)nc1S(=O)(=O)c1ccccc1)c1ccccc1 -10.4%
COc1cccc(NC(=O)c2ccc3nc(Cc4ccccc4)oc3c2)c1 -10.9%
CCc1ccc(-n2c(SCc3cccc(F)c3)nc3[nH]ncc3c2=O)cc1 -10.2% [at 11.5 µM, percent change from vehicle, -100% = no light]
COc1ccc(CNC(=O)Cn2nc(C)c3c(C)n(-c4ccccc4)nc3c2=O)cc1OC -14.2%
CCCCc1ccc(NC(=O)C2(C)Cc3ccccc3C(=O)O2)cc1 (stereo not drawn) -21.2%
CCc1ccc(C2CC(=O)Oc3c2c(=O)n(C)c2ccccc32)cc1 (stereo not drawn) -18.2%
Cc1cccc(-c2nc(C(N)=O)c3c(n2)n(-c2ccc4c(c2)OCO4)c(=O)n3C)c1 -17.1%
COc1ccc(N(C)C(=O)c2cc(S(=O)(=O)N3CCc4ccccc43)cn2C)c(OC)c1 -21.5%
Cc1cc(C)cc(NC(=O)Cn2cc(C(=O)c3ccccc3)c(=O)c3ccc(C)nc32)c1 -11.7%
Cn1c(=O)c2nc(SCC(=O)Nc3ccc(Cl)c(Cl)c3)n(C)c2n(C)c1=O -10.2%
CCCCC(CC)CN=C(N)NC(N)=NCCCCCCN=C(N)NC(N)=NCC(CC)CCCC (stereo not drawn) -76.7%
Cc1ccc(CN(Cc2ccco2)c2cnc(S(C)(=O)=O)nc2C(=O)Nc2ccccc2Br)o1 -30.8%
COC(=O)CN1C(=O)C(O)(CC(=O)c2ccc(F)cc2)c2ccccc21 (stereo not drawn) -4.49%
CCOC(=O)CSc1nc2ccc(NC(=O)COc3ccccc3C)cc2s1 -2.68%
Cc1ccc(Cl)cc1NC(=O)CCS(=O)(=O)c1ccc2c(c1)n(C)c(=O)c(=O)n2C -3.11%
Cc1ccc(-n2c3nc(=O)[nH]c(=O)c-3cc3c(C)nn(-c4ccccc4)c32)c(C)c1 -10.6%
O=C(Nc1ccc(Cl)cc1)c1cc2c(-c3ccccc3)nn(-c3ccccc3)c2s1 2.81%
Cc1nn(CC(=O)N2CCCCC2)c(=O)c2cc3occc3n12 -4.85%
CCN(CC)CCNC(=O)COc1ccc(Cl)cc1 -1.02%
COc1ccc(N2CCN(C(=O)c3ccc4c(Cl)c5c(nc4c3)CCCC5)CC2)cc1 -3.16%
CCOC(=O)c1c(NC(C)=O)c2c3c(sc2n1Cc1nc(-c2cccc(C)c2)oc1C)CCCC3 -3.39%
CCOc1ccc(-c2cc(C(=O)NCCc3ccc(Cl)cc3)c3ccccc3n2)cc1 0%
COc1cc(-c2cc(OC)c3c(C)oc(C)c3c(=O)c2)ccc1OC(=O)c1ccccc1F -10.2%
OCCCc1nc2n(n1)C(c1cccc(Cl)c1)C=C(c1ccccc1)N2 (stereo not drawn) -19.8%
COc1ccccc1-c1nc(CNC(=O)Nc2ccccc2)c(C)o1 -9.91%
O=[N+]([O-])c1cc(-c2nc(-c3ccccc3)no2)ccc1NC1CCCC1 -21.6%
COc1ccc(CN2C(=O)N(c3ccc(C)cc3)C(=O)C2CC(=O)Nc2ccccc2)cc1OC (stereo not drawn) 22.5%
CCCCCCNC(=O)n1cc(F)c(=O)[nH]c1=O
Cc1ccc2nc(NCCc3ccccc3)c3nncn3c2c1 17.7%
Cc1nn(-c2ccccc2)c(OC(=O)C(C)(C)C)c1Sc1ccccc1 -3.73%
CCn1c(=O)cc(OCC(=O)Nc2ccc(C)c(F)c2)c2ccccc21 -6.43%
Cc1ccc(Cn2c(SCc3ccc(C(=O)NC4CCCC4)cc3)nc3ccncc32)cc1 -26.6%
Cc1ccc(-n2c(-c3ccco3)nc3c(cnn3-c3ccccc3C)c2=O)cc1 -33.9%
COC(=O)c1cc(NS(=O)(=O)c2cc(Br)cc3c2N(C(C)=O)CC3)cc(C(=O)OC)c1 13.6%
COCCn1c(=N)c(C(=O)NCc2ccco2)cc2c(=O)n3cc(C)ccc3nc21 -3.53%
Cc1nnc(NC(=O)C(=O)c2cc(C)n(-c3ccc(C)c(C)c3)c2C)s1 -15.5%
CCCC(=O)c1ccc(OC(=O)c2c(-c3ccccc3Cl)noc2C)cc1 -21.4%
